From PubChem BioAssay AID360 (National Center for Advancing Translational Sciences (NCATS), 2006)
Among all 48,000 compounds or so, about 550 (1.1%) were called active. About 4% were inconclusive and are not listed. No stated cut-off is given here; in the data, active means potency below about 15 µM; inconclusive means mostly about 16 µM to 33 µM; inactive means weaker than that. The list shows a part of the results.

The compounds below were run against Lysosomal acid glucosylceramidase (Homo sapiens) (UniProt P04062) (assay: Glucocerebrosidase). Conditions: purified enzyme, resorufin glucoside fluorescence (screen aimed at inhibitors), 20 min.
UniProt P04062, sequence (P04062 whole entry, looked up): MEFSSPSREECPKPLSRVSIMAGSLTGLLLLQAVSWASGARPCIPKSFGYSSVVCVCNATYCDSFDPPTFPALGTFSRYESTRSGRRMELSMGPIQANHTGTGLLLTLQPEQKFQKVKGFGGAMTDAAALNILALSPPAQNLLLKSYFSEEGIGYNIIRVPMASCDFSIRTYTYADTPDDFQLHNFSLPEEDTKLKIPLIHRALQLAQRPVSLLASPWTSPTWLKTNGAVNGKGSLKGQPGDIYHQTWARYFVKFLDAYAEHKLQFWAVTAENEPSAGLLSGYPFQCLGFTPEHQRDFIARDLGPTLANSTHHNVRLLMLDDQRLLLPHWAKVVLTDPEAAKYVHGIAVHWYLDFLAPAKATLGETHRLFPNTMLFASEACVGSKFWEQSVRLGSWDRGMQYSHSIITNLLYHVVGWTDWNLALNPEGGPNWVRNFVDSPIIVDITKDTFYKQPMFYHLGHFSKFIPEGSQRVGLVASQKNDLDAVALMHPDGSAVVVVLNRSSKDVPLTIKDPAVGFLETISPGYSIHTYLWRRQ
In short: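 Compounds titrated against 0.2 nM normal enzyme, 30 uM resorufin beta-D-glucopyranoside substrate, citrate/phosphate buffer with taurocholate and tween-20, pH 5.9. Reaction ran 20 min at room temperature; fluorescence (Ex 548/Em 600) gave AC50.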
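Further: the screen sought inhibitors.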
Potency means the concentration at half of the fitted maximal effect.

Potency, inactive:
O=C(c1cccs1)N1CCN(C(=O)N2CCOCC2)CC1 > 76.9 µM, O=C(Cc1ccccc1)Nc1ccc(CN2CCOCC2)cc1 > 76.9 µM, CC(=O)N1c2c(cc(Br)cc2S(=O)(=O)NCc2cccnc2)CC1C (centres undefined) > 76.9 µM, CCOC(=O)N1CCC(NC(=O)C(NC(=O)C2CCCCC2)C(C)C)CC1 (centres undefined) > 76.9 µM, Cc1cc(C)c(C)c(S(=O)(=O)NCC(=O)N2CCCC2)c1C > 76.9 µM, O=C(CSc1nc2ccccc2o1)N1CCN(C(=O)c2ccco2)CC1 > 76.9 µM, CCCCCC(=O)Nc1ccc2oc(-c3cccnc3)nc2c1 > 76.9 µM, CCOC(=O)c1cnc(SCC(=O)Nc2ccc(NC(=O)CC)c(OC)c2)nc1N > 76.9 µM, Cc1ccc(C(=O)CSc2nnc(COc3cc(C)cc(C)c3)o2)cc1 > 76.9 µM, CC(C)(C)c1nnc2sc(SCC(=O)c3cccs3)nn2c1=O > 76.9 µM, c1ccc(Cn2nnc3c(Nc4ccc5c(c4)OCO5)nc(C4CC4)nc32)cc1 > 76.9 µM, O=C(CSc1nccc(=O)[nH]1)N1c2ccccc2CCc2ccccc21 > 76.9 µM, COc1ccc(C2C3=C(CCCC3=O)Nc3nc(C(F)(F)F)nn32)c(OC)c1OC (centres undefined) > 76.9 µM, O=C(CSc1ncn[nH]1)c1ccc2c(c1)OCO2 > 76.9 µM, CCn1c(Cc2cccn2C)nnc1SCC(=O)c1ccc(C)cc1 > 76.9 µM, COc1ccc(N2CCCn3c2nc2c3c(=O)n(Cc3ccc(F)cc3)c(=O)n2C)c(OC)c1 > 76.9 µM, CCc1cccc(C)c1NC(=O)CSc1nc2ccccc2n1CC(=O)N(C)C > 76.9 µM, COc1ccc(C(=O)CSc2nnc(Cc3ccccc3)o2)cc1 > 76.9 µM, CCC(=O)Nc1nc(OC)cc(OC)n1 > 76.9 µM, CCCS(=O)(=O)N1CCN(Cc2ccc(OCc3ccccc3)c(OC)c2)CC1 > 76.9 µM, O=C(COC(=O)c1ccccc1O)Nc1ccc(OC(F)F)cc1 > 76.9 µM, COC(=O)c1nnn(-c2nonc2N)c1CSc1nc2ccccc2s1 > 76.9 µM, CCCCOC(=O)CCn1c(=S)oc2ccccc21 > 76.9 µM, COc1ccc(NC(=O)CN2CCN(CC(=O)Nc3ccc4c(c3)OCO4)CC2)cc1 > 76.9 µM, CCOC(=O)N1CCC(c2nc3ccccc3[nH]2)CC1 > 76.9 µM, Cc1c(C(=O)Nc2ccc(N3CCOCC3)cc2)oc2ccccc12 > 76.9 µM, CCCOc1ccc(N2CC(C(=O)Nc3ncccc3C)CC2=O)cc1 (centres undefined) > 76.9 µM, O=C(Cn1c(=O)oc2cc(S(=O)(=O)N3CCCC3)ccc21)Nc1ccc(C(F)(F)F)cc1 > 76.9 µM, N#Cc1ccccc1OCC(=O)OCC(=O)c1ccc2c(c1)NC(=O)CO2 > 76.9 µM, CC1=CC2=NC(=O)CC(C)(C(=O)N(CC(=O)NC(C)(C)C)C3CCCC3)N2C=C1 (centres undefined) > 76.9 µM, O=C(NC1CCCCC1)c1ccc(CS(=O)(=O)Cc2ccccc2F)o1 > 76.9 µM, CCN=C1SC(CC(=O)Nc2ccccc2)C(=O)N1CC (centres undefined) > 76.9 µM, Cc1nc2ncnn2c(C)c1CCC(=O)N1CCN(C(=O)c2ccco2)CC1 > 76.9 µM, CCOC(=O)C1=C(C)NC(C)=C(C(=O)OCC)C1C(=O)OCC(=O)N1CCC(C)CC1 > 76.9 µM, NC(=O)CSc1nc(-c2ccccc2Cl)ns1 > 76.9 µM, c1ccc2nc(N3CCOCC3)c(N3CCOCC3)nc2c1 > 76.9 µM, Cc1ccc(C2CC(C(F)(F)F)n3nc(C(=O)NCC4CCCO4)cc3N2)cc1 (centres undefined) > 76.9 µM, CC(=O)NC(NC(C)=O)c1ccc(Br)cc1 > 76.9 µM, CC(C)(C)n1nnnc1C(c1ccccc1)N1CCc2ccccc2C1 (centres undefined) > 76.9 µM, O=C(OCc1nc2ccccc2c(=O)[nH]1)c1cccs1 > 76.9 µM, Cc1ccccc1Nc1nc(N)nc(CSc2nnnn2-c2ccccc2)n1 > 76.9 µM, O=C(NCC1CCCO1)C(C(=O)c1ccccc1)n1ccccc1=O (centres undefined) > 76.9 µM, CCOC(=O)C1=C(C)NC(=O)NC1c1ccc(F)cc1 (centres undefined) > 76.9 µM, CCOc1ccccc1NC(=O)CCCc1nc2ccccc2c(=O)[nH]1 > 76.9 µM, CCOc1ccc2[nH]c(=O)c(CN(Cc3ccc(F)cc3)C(=O)c3ccco3)cc2c1 > 76.9 µM, CCOc1cc(C)c(Cl)cc1S(=O)(=O)NCC1CCCO1 (centres undefined) > 76.9 µM, Cc1cccc(-n2ccnc2SCC(=O)Nc2nccs2)c1 > 76.9 µM, COc1ccc(C2C(C(=O)N3CCN(c4ccc(OC)cc4)CC3)c3ccccc3C(=O)N2C)cc1 (centres undefined) > 76.9 µM, CCOC(=O)CNC(=O)C(Cc1ccccc1)NS(=O)(=O)c1cccs1 (centres undefined) > 76.9 µM, O=C1CC(N2CCOCC2)C(=O)N1c1ccc2c(c1)OCO2 (centres undefined) > 76.9 µM, Cn1c(Oc2ccccc2NCc2cc(Br)ccc2O)cc(=O)n(C)c1=O > 76.9 µM, O=C(CSc1nn(-c2ccc(Cl)cc2)c(=S)s1)N1CCN(C(=O)c2ccco2)CC1 > 76.9 µM, CCNC(=O)NC(=O)COC(=O)c1ccccc1SCC(=O)NC(=O)NCC > 76.9 µM, CN(Cc1ccccc1)C(=O)Nc1ccccc1 > 76.9 µM, CCOc1ccc(C(=O)Nc2ccc3c(c2)OCCO3)cc1OC > 76.9 µM, Cc1cccc(CS(=O)(=O)Cc2ccc(C(=O)NCc3ccco3)o2)c1 > 76.9 µM, CCOC(=O)c1c(CN2CCCCC2)oc2ccc(O)cc12 > 76.9 µM, COc1ccc(N(CC(=O)N2CCc3ccccc32)S(=O)(=O)c2c(C)n[nH]c2C)cc1 > 76.9 µM, CCC(=O)Nc1nc2cc(OC)ccc2s1 > 76.9 µM, COCCOC(=O)C1=C(C)NC2=C(C(=O)CC(c3cccs3)C2)C1c1ccsc1 (centres undefined) > 76.9 µM, COc1ccc(OC)c(S(=O)(=O)N(C)CC(=O)N2CCN(c3cccc(Cl)c3)CC2)c1 > 76.9 µM, COc1ccccc1NC(=O)CSc1nnc(-c2ccco2)n1Cc1ccco1 > 76.9 µM, CC(C)CNC(=O)c1cccc(NC(=O)c2ccc(NC(=O)c3ccco3)cc2)c1 > 76.9 µM, CNC(=O)Nc1ccccc1C(=O)NCc1ccccc1 > 76.9 µM, CN1CCN(C(=O)c2ccc(NS(=O)(=O)c3ccccc3)cc2)CC1 > 76.9 µM, CCOc1ccc(OCc2ccc(C(=O)OCc3ccccn3)o2)cc1 > 76.9 µM, CC(C)NC(=O)CSc1nnc(-c2ccc(S(=O)(=O)N3CCCC3)cc2)n1CC1CCCO1 (centres undefined) > 76.9 µM, O=C(c1ccco1)N1CCN(C(=O)C2CC(c3ccc(Cl)c(Cl)c3)=NO2)CC1 (centres undefined) > 76.9 µM, CCOC(=O)C1=C(C)N(CCO)C(=O)NC1c1cccc(O)c1 (centres undefined) > 76.9 µM, CC(=O)Cc1nsc(NC(=O)c2ccc(-c3ccc(Cl)c(C(F)(F)F)c3)o2)n1 > 76.9 µM, COc1ccc(-c2nnc(SCC(=O)N3CCCc4ccccc43)o2)cc1OC > 76.9 µM, Cc1ccc2c(c1)nnn2C1CCN(CC(=O)N2c3ccccc3CC2C)CC1 (centres undefined) > 76.9 µM, O=C(CN1CCCc2ccccc21)NC(=O)NCc1ccco1 > 76.9 µM, O=C(CN1CCC(n2nnc3cc(F)ccc32)CC1)N1CCCc2ccccc21 > 76.9 µM, O=C(CCCCn1c(=O)c2ccccc2n(CC(=O)Nc2ccc(F)cc2)c1=O)NCc1ccco1, COc1cccc(OCc2nnc(SCC(=O)OCc3ccccc3)o2)c1 > 76.9 µM, Cc1ccc(OCCSc2nnc(NC(=O)c3ccco3)s2)cc1 > 76.9 µM, O=S(=O)(NCC1CCCO1)c1ccc(Cl)c(C(F)(F)F)c1 (centres undefined) > 76.9 µM, O=C(OC(C(=O)NCc1cccs1)c1ccccn1)c1cccs1 (centres undefined) > 76.9 µM, CC(=O)Nc1ccc(C(=O)Cn2nnc3ccccc3c2=O)cc1 > 76.9 µM, NC(=O)CSc1nnc(Cc2csc(Nc3ccccc3)n2)n1Cc1ccccc1, O=C(NCc1ccco1)c1ccccc1Br > 76.9 µM, Cc1cc(C(=O)COC(=O)CN(C)S(=O)(=O)c2ccc(Cl)cc2)c(C)n1Cc1cccs1 > 76.9 µM, O=C(CCn1nnc(-c2cccs2)n1)NC1CCCCC1 > 76.9 µM, CCCC(c1nnnn1Cc1ccco1)N1CCN(C(=O)c2ccco2)CC1 (centres undefined) > 76.9 µM, CC(=O)N1CCc2cc(S(=O)(=O)NCCC(=O)N3CCN(c4ccccn4)CC3)ccc21 > 76.9 µM, O=C(C1CCCCC1)N1CCC(c2nc3ccccc3[nH]2)CC1 > 76.9 µM, CC1(C)C(c2cccs2)=[N+]([O-])C2(CCCCC/C2=N\O)N1O (centres undefined) > 76.9 µM, C=CCn1c(COc2ccccc2)nnc1SCC(=O)NCC(=O)OCC > 76.9 µM
